These are literature values, as cited in publication PMC9804470, “A Formylglycine‐Peptide for the Site‐Directed Identification of Phosphotyrosine‐Mimetic Fragments” (Chemistry (Weinheim an Der Bergstrasse, Germany), 2022).

For the series, the system named is PTP1B. The conditions noted are these: read-out: KM value as substrate of PTP1B; phosphopeptide as substrate; cited from earlier work.

Take “Ac‐Asp‐Ala‐Asp‐Glu‐Tyr*‐Leu‐NH2 [Compound 1]”: the Km was 3.6 µM.

For orientation: Km means the substrate concentration at which the rate is half of its maximum.
